# Measurements published in PubChem BioAssay AID504706 (National Center for Advancing Translational Sciences (NCATS), 2011).
# Screen size: about 320,000 compounds; about 200 (0.062%) were called active. Inconclusive means that the source gave no clear call. Such entries were picked first, then a sample of the others. The call rests on the fitted dose curve; in most records, active means well fitted activation curve with a large enough effect; inconclusive means small, poorly fitted or top-dose-only effect; inactive means no such curve, though single readings can be large or run the other way. No potency is given beside an inconclusive call; the fits are too rough.
# Assay: qHTS assay for re-activators of p53 using a Luc reporter; further: nearly all actives have a fitted effect of over 45% in size
# Settings: H1299 p53-A138V BP100-luciferase reporter, luminescence, 24 h; series mostly up to 92.2 µM
# Summary of the method: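 p53-null H1299 cells stably carrying temperature-sensitive p53-A138V and a BP100-luciferase reporter were pinned with compounds (4-point, 1:5 series) and held 24 hrs at 37 deg C. Luminescence was read 10 min after detection reagent.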
# Potency means the concentration at half of the fitted maximal effect; tags describe the fitted curve by direction and shape.
row,Compound,Potency
1,CCCc1cc(C(=O)NCc2ccc(OC)cc2)no1,"inconclusive [activator, full curve, poor fit]"
2,CCCCc1c(C)nc2ccc(OC)cc2c1SCCC(=O)O,inactive
3,S=C(Nc1ccc(Cl)cc1)Nc1ccc2c(c1)OCCO2,"inconclusive [activator, partial curve, poor fit]"
4,COc1cccc(C2=NC(C)(C)NC(c3ccccc3O)C2)c1 (centres undefined),"inconclusive [activator, partial curve, poor fit]"
5,Cc1cc(O)c(NC(=O)c2cc([N+](=O)[O-])ccc2Cl)cc1C,"inconclusive [activator, full curve]"
6,CCOC(=O)N1CCN(C(=O)c2oc3ccc(S(=O)(=O)N4CC(C)CC(C)C4)cc3c2C)CC1 (centres undefined),inactive
7,COc1ccc(CCN2C(=O)c3[nH]nc(-c4ccccc4O)c3C2c2ccccc2)cc1OC (centres undefined),inactive
8,CCC(C)c1ccc(NC(=S)Nc2ccc(OC)cc2)cc1 (centres undefined),"inconclusive [activator, full curve, poor fit]"
9,Nn1c(SCc2cccc(F)c2)nnc1-c1cccnc1,inactive
10,CS(=O)(=O)NCCCNc1ccc(C(F)(F)F)cc1[N+](=O)[O-],inactive
11,Cc1ccc(Nc2nnc(SCC3CCCCO3)s2)cc1 (centres undefined),inactive
12,O=c1/c(=C/c2ccccn2)sc2n1CN(c1ccccc1)CN=2,"inconclusive [activator, partial curve, poor fit]"
13,CCOC(=O)N1CCN(C(=O)CNC(=O)c2nn(-c3ccc(OC)cc3)c(=O)c3ccccc23)CC1,"inconclusive [activator, partial curve, poor fit]"
14,CC(=O)c1ccc(NC(=O)c2cccc(S(=O)(=O)N3CCN(C)CC3)c2)cc1,"inconclusive [activator, partial curve, poor fit]"
15,CCOC(=O)C1CCN(C(=O)Nc2ccc(OC(F)(F)F)cc2)CC1,inactive
16,Cc1cc(N/N=C/c2ccc(O)c(C)c2O)nc(-c2ccccc2O)n1,"inconclusive [activator, full curve, poor fit]"
17,CN(CC(=O)Nc1ccc(Cl)c(Cl)c1)C(=O)C1CCCC1,"inconclusive [activator, partial curve, poor fit]"
18,CCc1ccccc1Nc1ccc(C(=O)O)cc1N,"inconclusive [activator, partial curve, poor fit]"
19,Cc1ccc(N=Nc2c(C)[nH][nH]c2=O)c(C)c1,"inconclusive [activator, single point]"
